Our source for the mass density values is a compilation of properties of binary mixtures (doi:10.1016/j.jct.2015.02.025).

The densities may have been worked out from excess volumes.

The nature of the data set: xn = mol fraction of the nth substance listed. Conditions: 298.15 K, 100 kPa.

Turning to `CCCC[n+]1ccccc1.N#C[N-]C#N` + O, the mass density (commonly mass per unit of volume) came out at 1068.7 kg/m3 (x2 = 0.0133); 1068.6 kg/m3 (x2 = 0.0295); 1068.4 kg/m3 (x2 = 0.0452); 1068.3 kg/m3 (x2 = 0.0605); 1068.1 kg/m3 (x2 = 0.0743).

On to `CCC[n+]1ccccc1.N#C[N-]C#N` + O, for which the mass density runs as follows: (x2 = 0.0124) 1089.8 kg/m3; (x2 = 0.0275) 1089.6 kg/m3; (x2 = 0.0412) 1089.4 kg/m3; (x2 = 0.0565) 1089 kg/m3.

`CCCCCC[n+]1ccccc1.N#C[N-]C#N` + O: the mass density reads like this: (x2 = 0.0406) 1036.2 kg/m3; (x2 = 0.0581) 1036.1 kg/m3; (x2 = 0.075) 1036 kg/m3; (x2 = 0.0913) 1035.9 kg/m3.

On to `CCCCC[n+]1ccccc1.N#C[N-]C#N` + O, for which the mass density is on record as 1053 kg/m3 (x2 = 0.0142); 1052.9 kg/m3 (x2 = 0.0315); 1052.8 kg/m3 (x2 = 0.0482); 1052.6 kg/m3 (x2 = 0.0644); 1052.5 kg/m3 (x2 = 0.0791).

`CC[n+]1ccccc1.N#C[N-]C#N` + O: the mass density came to 1118.1 kg/m3 (x2 = 0.0209), 1117.6 kg/m3 (x2 = 0.0516), 1117.4 kg/m3 (x2 = 0.0672) and 1117.1 kg/m3 (x2 = 0.0807).
